Results reported in the RNAGym collection of RNA variant scans (doi:10.1093/nar/gkz1192).
Read counts are not given, so values of variants with three or more changes are uncertain.

B1: CPEB3 Ribozyme (parent)
chain: UAACAGGGGGCCACAGCAGAAGCGUUCACGUCGCAGCCCCUGUCAGAUUCUGGUGAAUCUGCGAAUUCUGCUGUAUAUCUC

Variants of: B1
Assay: self-cleavage, relative activity (ratio to wild type); higher = more cleavage; in vitro, sequencing
In short: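 CPEB3 self-cleaving ribozyme mutant libraries were made by rounds of error-prone PCR, barcoded, and transcribed in vitro with T7 RNA polymerase for 5 hours at 37°C. Cleavage occurred during transcription and a 15 min DNase I step before EDTA stop. RNAs were reverse transcribed with template switching and Illumina-sequenced, with DNA sequencing mapping barcodes to variants. Relative activity is the variant's cleaved/total read fraction divided by wild type's (minimum 5 reads), averaged across three batches.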

Variant	self-cleavage
UAACAGGGGGCCACAGCAGAAGCGUUCACAUCGCAGCCCCUGUCAGAUUCUGGUGAAUCUGCGUUUUCUGCUGUAUAUCUC	0.07
UAACAGGGGGCCACAGCAGAAGCGUUCACAUAGCAGCCCCUGUCAGAUUCUGGUAAAUCUGCGAAUGCUGCUGUAUAUCUC	0.17
UAACAGGGGGCCACAGCAGAAGCGUUCACAUCGCAGCACCCGUCAGAUUCUGGUGAAUCUGCGAAUUCUGCUGUAUAUCUC	0.35
UAACAGGGGGCCACAGCAGAAGCGUUCACAUCGCAGCUCCUGUCAGAUUCUAGUGAAUCUGUGAAUUCUGCUGUAAAUCUC	0.07
UAACAGGGGGCCACAGCAGAAGCGUUCACAUCGCAGCCCAUGUCAGAUUCUGGUGAAUCUGCCAAUUCCGCUGUAUAUCUC	0.11
UAACAGGGGGCCACAGCAGAAGCGUUCACAUCGCAGCCCAUGUCAGAUUCCGGUGAAUCUGCGAAUUCCGCUGUAUAUCUC	0.14
UAACAGGGGGCCACAGCAGAAGCGUUCACAUCGCAGCCCUUGUCAGAUUCUGGUGAAUCUGCGAGUUCUGCUGUAUAUUUC	0.14
UAACAGGGGGCCACAGCAGAAGCGUUCACAUCGCAGCCCUUGUCAGAUUCUGGUGAAUCUGCGAAUUCUGCUGUAUAUCCC	0.24
UAACAGGGGGCCACAGCAGAAGCGUUCACAUCGCAGCCCCUGUCAGAUUCUGGUGAAUCUGAGAAUUCCGCUGUAUACCUC	0.12
UAACAGGGGGCCACAGCAGAAGCGUUCACAUCACAGCCCCUGUCGGAUUCUGGUGAAUCUGCAAAUUCUGCUGUAUAUCUC	0.08
UAACAGGGGGCCACAGCAGAAGCGUUCACAUCCCAGCCCCUGUCAGAUUCUGGUGAAUCGGCGAAUUCUGCUGUAUGUCUC	0.12
UAACAGGGGGCCACAGCAGAAGCGUUCACAUCGCAGCCCCUAUCAGACUCUGGUGAAUCUGCGAAUUCUGCUGUAUCUCUC	0.05
UAACAGGGGGCCACAGCAGAAGCGUUCACAUCGCAGCCCCUAUCAGAUUCUGGUGAAUCUGCGAAUCCUGCUGUACAUCUC	0.09
UAACAGGGGGCCACAGCAGAAGCGUUCACAUCGCAGCCCCUGUCAUAUUCAGGUGAAUCUGCGAAUUCUGCUGUAUAUCUC	0.14
UAACAGGGGGCCACAGCAGAAGCGUUCACAUCGCAGCCCCUGUCAGAUUCUAGUGAGUCUGCGGAUUCUGCUGUAUAUCUC	0.19
UAACAGGGGGCCACAGCAGAAGCGUUCACAUCGCAGCCCCUGUCAGAUUCUUGUGAAUCUGCGGAUUCUGCUGUACAUCUC	0.21
UAACAGGGGGCCACAGCAGAAGCGUUCACAUCGCAGCCCCUGUCAGAUUCUGGUAAAUCUGCGACUUCUGCCGUAUAUCUC	0.14
UAACAGGGGGCCACAGCAGAAGCGUUCACAUCGCAGCCCCUGUCAGAUUCUGGUUAAUCUGCGAGUUCUGCUGUAUAUCUC	0.07
UAACAGGGGGCCACAGCAGAAGCGUUCACAACGUAGCCCCUGUCAGAUUCUGGUGGAUCUGCGAAUUCUGCUGUAUAUCUC	0.08
UAACAGGGGGCCACAGCAGAAGCGUUCACACCGCAGCCCCUGUCAGAUUCUGGUGAAUCUGCGUAUUCUGCUGUAUAUCUC	0.17
UAACAGGGGGCCACAGCAGAAGCGUUCACACCGCAGACACUGUCAGAUUCUGGUGAAUCUGGGAAUUCUGCUGUAUAUCUC	0.04
UAACAGGGGGCCACAGCAGAAGCGUUCACACCGCAUCCCCUGUCAGAUUCUGGUGAAUCUGCGAAUUCUGCUGUAUAUCUC	0.17
UAACAGGGGGCCACAGCAGAAGCGUUCACACCGCAGCCCCCGUCAGAUUCUGGCGAAUCUGCGAAUUCUGCUGUAUAUCUC	0.19

Variant	self-cleavage
UAACAGGGGGCCACAGCAGAAGCGUUCACACCGCAGCCCCUGUCAGACUCUGGCGAAUCUGCGAAUUCUGCUGUAUAUCUC	0.17
UAACAGGGGGCCACAGCAGAAGCGUUCACAUCGCAGCCCCAGUCAGAUCCUGGUGAAUCUGCGAAUUCUGCAGUAUAUCUC	0.1
UAACAGGGGGCCACAGCAGAAGCGUUCACAUCGCAGCCCCAGUCAGAUUCUGGUGAAUCUGCGAAUCCCGCUGUAUAUCUC	0.07
UAACAGGGGGCCACAGCAGAAGCGUUCACAUCGCAGCCCCCGUCCGGUUCUGGUGAAUCUGCGAAUUCUGCUGUAUAUCUC	0.08
UAACAGGGGGCCACAGCAGAAGCGUUCACAUCGCAGCCCCCGUCGGAUUCUGGUGAAUCUGCGAAUUCUGCUGUAUAUCUC	0.53
UAACAGGGGGCCACAGCAGAAGCGUUCACAUCGCAGCCCCCGUCAGAUUCUGGUGGAUCUGCGAAUUCUGCUGUAUAUCUC	0.39
UAACAGGGGGCCACAGCAGAAGCGUUCACAUCGCAGCCCCCGUCAGAUUCUGGUGGAUCUGCGAAUUCUGCUGUAUAUCCC	0.12
UAACAGGGGGCCACAGCAGAAGCGUUCACAUCGCAGCCCCCGUCAGAUUCUGGUGAUUCUGCGAAUUCUGCAGUGUAUCUC	0.06
UAACAGGGGGCCACAGCAGAAGCGUUCACAUCGCAGCCCCCGACAGAUUCUGGUGAAUCUGCGAAUUCUGCUGUUUAUCUC	0.11
UAACAGGGGGCCACAGCAGAAGCGUUCACAUCGCAGCCCCCGUCAGAUCCUGGUGAAUCUGCGAAUUCUGCCGUAUAUCUC	0.09
UAACAGGGGGCCACAGCAGAAGCGUUCACAUCGCAGCCCCCGUCAGAUUCCGGUGAAUCUGCGAAUUCUGCAGUAUAUCCC	0.09
UAACAGGGGGCCACAGCAGAAGCGUUCACAUCGCAGCCCCCGUCAGAUUCUGGUGAAUCAGCGAAUUCUGCCGUGUAUCUC	0.11
UAACAGGGGGCCACAGCAGAAGCGUUCACAUCGCAGCCCCCGUCAGAUUCUGGUGAAUCUGCGAAUUCUGCUGUAUAACUC	0.11
UAACAGGGGGCCACAGCAGAAGCGUUCACAUCGCAGCCCCGGUCAGAUUCUGGUGAGUCUGCGAAUUCUGCUGUAUGUCUC	0.31
UAACAGGGGGCCACAGCAGAAGCGUUCACAUCGCAGCCCCUGCCAGAUUCUGGUGAGUCUGCGAACUCUGCUGUAUAUCUC	0.11
UAACAGGGGGCCACAGCAGAAGCGUUCACAUCGCAGCCCCUGCCAGAUUCUGGUGAAUCUGCGAGUUCUGCUGUACAACUC	0.12
UAACAGGGGGCCACAGCAGAAGCGUUCACAUCGCAGCCCCUGUCAGAAUCAGGUGAAUCUGCGAAUUCUGCUGUAUACCUC	0.13
UAACAGGGGGCCACAGCAGAAGCGUUCACAUCGCAGCCCCUGUCAGAUACUGGUCAAUCUGCGAAUUCUGCUGUACAUCUC	0.14
UAACAGGGGGCCACAGCAGAAGCGUUCACAUCGCAGCCCCUGUCAGAUCCUGGUGAAUCUGCGAGUUCCGCUGUAUAUCUC	0.05
UAACAGGGGGCCACAGCAGAAGCGUUCACAUCGCAGCCCCUGUCAGAUCCUGGCGAAUCCGCGAACUCUGCUGUAUACCUC	0.06
UAACAGGGGGCCACAGCAGAAGCGUUCACAUCGCAGCCCCUGUCAGAUUCCGGUGAAUCUGCGAAUUCUGCUGUAUUUCUC	0.09
UAACAGGGGGCCACAGCAGAAGCGUUCACAUCGCAGCCCCUGUCAGAUUCUGGAGGAUCUGCGAAUUCUGCUGUAUAUCUC	0.11
UAACAGGGGGCCACAGCAGAAGCGUUCACAUCGCAGCCCCUGUCAGAUUCUGGCGAAUCUGCGAAUACUGCUGUAUAUCUC	0.22

Variant	self-cleavage
UAACAGGGGGCCACAGCAGAAGCGUUCACAUCGCAGCCCCUGUCAGAUUCUGGUGAAUCCGCGAAUUCCGCUGUAUAUCUC	0.07
UAACAGGGGGCCACAGCAGAAGCGUUCACAUCGCAGCCCCUGUCAGAUUCUGGUGAAUCCGCGAAUUCGGCUGUAUAUCUC	0.07
UAACAGGGGGCCACAGCAGAAGCGUUCACAUCGCAGCCCCUGUCAGAUUCUGGUGAAUCUGCGAACCCUGCUGUAUAUCUC	0.16
UAACAGGGGGCCACAGCAGAAGCGUUCACAUCGCAGCCCCUGUCAGAUUCUGGUGAAUCUGCGAAUUCAGCUGUAUACCUC	0.21
UAACAGGGGGCCACAGCAGAAGCGUUCACAUCGCAGCCCCUGUCAGAUUCUGGUGAAUCUGCGAAUUCCGCAGUAUAUCGC	0.08
UAACAGGGGGCCACAGCAGAAGCGUUCACAUCGCAGCCCCUGUCAGAUUCUGGUGAAUCUGCGAAUUCCGCCGUAUAUCUC	0.32
UAACAGGGGGCCACAGCAGAAGCGUUCACAUCGCAGCCCCUGUCAGAUUCUGGUGAAUCUGCGAAUUCUGCUGUAAGUCUC	0.16
UAACAGGGGGCCACAGCAGAAGCGUUCACCUCGCGGCCCCUGUCAGGUUCCGGUGAAUCUGUGAAUUCUGCUGUAUAUCUC	0.08
UAACAGGGGGCCACAGCAGAAGCGUUCACCUCGCAGCCCCUGUCGGAUUCUGGAGAACCUGCGAAUUCUGCUGUAUAUCUC	0.1
UAACAGGGGGCCACAGCAGAAGCGUUCACCUCGCAGCCCCUGUCUGAUUCUGGUGAAUCUGCGAAUUCUGCCGUAUAUCUC	0.19
UAACAGGGGGCCACAGCAGAAGCGUUCACCUCGCAGCCCCUGUCAGGUUCUGGUGGAUCUGCGAAUUCUACUGUAUAUCUC	0.15
UAACAGGGGGCCACAGCAGAAGCGUUCACCUCGCAGCCCCUGUCAGGUUCUGGUGAAUCUGCGAAUUCUGCUGCAUAUCUC	0.15
UAACAGGGGGCCACAGCAGAAGCGUUCACCUCGCAGCCCCUGUCAGAUUCUGGUGUAACUGCGAAUUCCGCUGUAUAUCUC	0.13
UAACAGGGGGCCACAGCAGAAGCGUUCACCUCGCAGCCCCUGUCAGAUUCUGGUGAGUCUGUGAAUUCUGCUGUAUAUCUC	0.04
UAACAGGGGGCCACAGCAGAAGCGUUCACCUCGCAGCCCCUGUCAGAUUCUGGUGAAUCUGCGAGUUCUGCUAUAUAUCUC	0.09
UAACAGGGGGCCACAGCAGAAGCGUUCACCUCGCAGCCCUUGUCAGACUCUGGCGAAUCUGCGAAUUCAGCUGUAUAUCUC	0.14
UAACAGGGGGCCACAGCAGAAGCGUUCACCUCGCACCCCCUGUCGGAUUCUGGUGAAUCUGCGAAUUCUGCUGUAUAUCUC	0.06
UAACAGGGGGCCACAGCAGAAGCGUUCACCUCGCAGCCCCUCUCAGAUACUUGUGAAUAUGCGAAUUCUGCUGUAUAUCUC	0.09
UAACAGGGGGCCACAGCAGAAGCGUUCACCUCGCAGCCCCUGUCAGAUUCUGAUGAAUCUGCGUAUUCUGCUGUAUAUCUC	0.1
UAACAGGGGGCCACAGCAGAAGCGUUCACCCCGCAGCCCCUGUCAGAUUCUGGAGAGUCUGCGAAUUCUGCUGUAUGUCUC	0.09
UAACAGGGGGCCACAGCAGAAGCGUUCACCUCGCAGCCCCAGUCUGAUUCUGGUGAAUCUGCGAAUUCUGCUGUAUAUCUC	0.1
UAACAGGGGGCCACAGCAGAAGCGUUCACCUCGCAGCCCCAGUCAGAUUCAGGUGAAUCUGCGAGUUCAGCUGUAUAUCUC	0.17
